Experimental data reported in PMC4336329 (PLoS ONE, 2015).
The whole screen tested about 310,000 compounds, of which about 2,200 (0.71%) showed an effect of 50% or more. Effects have a minus sign here. This is one part of the list.

biological target: human ether-à-go-go-related gene (hERG) potassium channel (human, UniProt Q12809); assay: primary screen, population patch clamp on CHO cells stably expressing hERG
Sequence (Q12809 whole entry, looked up): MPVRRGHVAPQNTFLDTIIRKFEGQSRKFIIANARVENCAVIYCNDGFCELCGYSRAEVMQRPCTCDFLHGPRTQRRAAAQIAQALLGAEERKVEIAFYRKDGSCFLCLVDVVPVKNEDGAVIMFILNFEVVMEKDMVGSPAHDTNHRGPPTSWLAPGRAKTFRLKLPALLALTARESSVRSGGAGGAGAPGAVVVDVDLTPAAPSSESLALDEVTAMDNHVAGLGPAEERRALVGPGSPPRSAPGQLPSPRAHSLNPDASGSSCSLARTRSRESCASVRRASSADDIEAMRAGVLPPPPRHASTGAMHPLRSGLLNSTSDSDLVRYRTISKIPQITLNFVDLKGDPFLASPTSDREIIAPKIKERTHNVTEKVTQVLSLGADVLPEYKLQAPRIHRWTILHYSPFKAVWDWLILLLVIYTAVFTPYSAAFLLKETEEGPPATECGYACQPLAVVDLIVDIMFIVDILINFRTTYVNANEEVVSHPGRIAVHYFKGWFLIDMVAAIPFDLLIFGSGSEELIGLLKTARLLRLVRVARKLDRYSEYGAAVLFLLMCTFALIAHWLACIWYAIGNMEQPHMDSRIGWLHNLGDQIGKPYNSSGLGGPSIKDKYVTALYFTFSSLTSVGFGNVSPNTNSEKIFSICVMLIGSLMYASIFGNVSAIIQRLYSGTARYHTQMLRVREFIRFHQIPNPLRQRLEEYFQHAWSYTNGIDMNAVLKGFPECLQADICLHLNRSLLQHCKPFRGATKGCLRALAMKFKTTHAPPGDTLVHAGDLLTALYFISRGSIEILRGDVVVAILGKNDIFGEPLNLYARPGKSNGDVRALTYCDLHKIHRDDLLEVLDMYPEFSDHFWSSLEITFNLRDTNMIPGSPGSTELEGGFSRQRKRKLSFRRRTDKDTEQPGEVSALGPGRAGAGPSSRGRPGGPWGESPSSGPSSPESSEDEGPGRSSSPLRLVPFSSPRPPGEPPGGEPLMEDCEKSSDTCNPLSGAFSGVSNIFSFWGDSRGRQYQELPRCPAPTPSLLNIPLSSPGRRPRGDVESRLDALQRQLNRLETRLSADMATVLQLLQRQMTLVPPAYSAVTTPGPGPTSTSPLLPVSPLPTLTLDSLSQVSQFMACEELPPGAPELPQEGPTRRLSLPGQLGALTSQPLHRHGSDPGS

Going from COc1ccc(CNC(=O)C2CCCN(S(=O)(=O)c3ccc4c(c3)C(C)(C)C(=O)N4C)C2)cc1 (centres unmarked) to COc1cccc(NC(=O)C2CCN(S(=O)(=O)c3ccc4c(c3)N(C(C)=O)CCO4)CC2)c1, the “hERG current change (%, negative = inhibition) at 1uM” value rises from 16.5% to 21.6%.

Compared with COc1cc(OC)c(N2CC34C=CC(O3)C(C(=O)O)C4C2=O)cc1Cl (centres unmarked), CCCn1c(=O)c(C(=O)NCc2ccc(OC)c(OC)c2)c(O)c2ccccc21 is higher in “hERG current change (%, negative = inhibition) at 1uM” value: 11.7% for the first, 12% for the second.

Compared with CCCC(c1nnnn1CS(=O)(=O)c1ccc(C)cc1)N1CCC(C(N)=O)CC1 (centres unmarked), CCC(c1nnnn1Cc1ccccc1)N1CCN(c2ccc(OC)cc2)CC1 (centres unmarked) is lower in “hERG current change (%, negative = inhibition) at 1uM” value: 7.13% for the first, 1.56% for the second.

Going from CC1CCN(CCOc2cc(Cl)ccc2Cl)CC1 to CCOC(=O)C1CCN(C(=O)Nc2ccc(C)c(Cl)c2)CC1, the “hERG current change (%, negative = inhibition) at 1uM” value rises from -5.51% to 6.49%.

Going from O=C(Nc1ccc(Oc2ccccc2)cc1)C1CCCN(c2ncccn2)C1 (centres unmarked) to O=C(Nc1ccc2ccccc2c1)C(c1ccccc1)C1CCCC1 (centres unmarked), the “hERG current change (%, negative = inhibition) at 1uM” value falls from 6.08% to 3.85%.

Compared with COc1ccc(CCNC(=O)C2CC3Cn4c(nc5ccccc54)C3N2Cc2ccccc2)cc1 (centres unmarked), COc1ccc(NC(=O)c2cnn(-c3ccccc3)c2C)cc1 is higher in “hERG current change (%, negative = inhibition) at 1uM” value: -1.43% for the first, 4.57% for the second.

First: N#C/C(=C\c1ccc[nH]1)Sc1nc2ccccc2s1
Second: O=C(Nc1cccc(Cl)c1)Nc1sccc1-c1nc2ccccc2s1
The “hERG current change (%, negative = inhibition) at 1uM” value of the first is lower: 10.1% for the first, 19.6% for the second.

Going from Cc1ccc(NC(=O)CC2SC(=O)N(c3ccccc3)C2=O)cc1 (centres unmarked) to Cc1ccc(S(=O)(=O)Nc2ccc(Nc3ccccc3)cc2)cc1, the “hERG current change (%, negative = inhibition) at 1uM” value rises from 9.37% to 11.7%.

First: Cc1ccccc1C(=O)NC(=S)NC1CCSC1=O (centres unmarked)
Second: NC(=O)c1ccccc1NC(=O)c1ccoc1
The “hERG current change (%, negative = inhibition) at 1uM” value of the first is lower: 7.45% for the first, 10.2% for the second.

Compared with CCn1c(CCNC(=O)c2ccc(Cl)cc2)n[nH]c1=S, O=C(NNC(=O)c1cnccn1)c1ccc(Cl)cc1 is higher in “hERG current change (%, negative = inhibition) at 1uM” value: 4.7% for the first, 14.5% for the second.

Going from O=C(Nc1ccc2c3c(cccc13)CC2)c1ccc(Br)o1 to CN1CCN(c2ccc(NC(=O)c3ccc(-c4ccccc4F)o3)cc2)CC1, the “hERG current change (%, negative = inhibition) at 1uM” value falls from 2.94% to -6.66%.

First: Cc1ccc2nsnc2c1S(=O)(=O)NCc1ccncc1
Second: Cc1cc(Cl)ccc1OCC(=O)Nc1cccc(S(=O)(=O)NC2=NCCCCC2)c1
The “hERG current change (%, negative = inhibition) at 1uM” value of the first is higher: 16.5% for the first, 10.1% for the second.

First: Cc1c(C(=O)NC2CCCCC2)oc2ccc(F)cc12
Second: CN(CCc1ccccn1)C(=O)CCC1CCCN(C(=O)NC2CCCCC2)C1 (centres unmarked)
The “hERG current change (%, negative = inhibition) at 1uM” value of the first is lower: 11.1% for the first, 16.5% for the second.

Compared with CCCC(=O)C1=C(O)C(C(=O)OC)C(C)(C)CC1=NC (centres unmarked), CCCC(=O)Nc1sc(C(=O)OC)c(C)c1C(N)=O is lower in “hERG current change (%, negative = inhibition) at 1uM” value: 10.8% for the first, 8.48% for the second.

Compared with O=C(C1=C(O)C(=O)N(CC2CCCO2)C1c1ccc(Cl)cc1Cl)c1ccco1 (centres unmarked), O=C(Oc1ccc2c3c(c(=O)oc2c1)CCC3)c1ccco1 is lower in “hERG current change (%, negative = inhibition) at 1uM” value: 15.8% for the first, 1.61% for the second.

Going from COCC1CCN(C(=O)C2CCC(=O)N(C3CCCC3)C2)CC1 (centres unmarked) to O=C(C1CCCN(S(=O)(=O)c2ccc(F)cc2)C1)N1CCCC1 (centres unmarked), the “hERG current change (%, negative = inhibition) at 1uM” value falls from 16.1% to 9.99%.

Compared with Cc1[nH]c(=O)[nH]c(=O)c1S(=O)(=O)Nc1cccc(C(F)(F)F)c1, C/C(=N\NC(=O)CC(C)C)c1c(C(F)(F)F)[nH]n(-c2nc3ccccc3s2)c1=O is lower in “hERG current change (%, negative = inhibition) at 1uM” value: 15.2% for the first, 14.2% for the second.

First: Cc1ccc(/C(=N/Nc2ncnc3ccccc23)C(=O)O)cc1
Second: O=C(O)c1ccccc1C(=O)c1ccc(-c2ccccc2)cc1
The “hERG current change (%, negative = inhibition) at 1uM” value of the first is higher: 15.2% for the first, 14.6% for the second.

First: Cn1c(SCc2cc(=O)[nH]c(C(C)(C)C)n2)nnc1C(F)(F)F
Second: CCOc1cc2c(cc1C(C)(C)C)NC(=O)CS2
The “hERG current change (%, negative = inhibition) at 1uM” value of the first is higher: 12.5% for the first, 6.49% for the second.

Compared with CCCn1c(N)c(C(c2ccc(C(=O)OC)cc2)N2CCN(c3ccccc3)CC2)c(=O)[nH]c1=O (centres unmarked), CCCCC1CCC(C(=O)N(CC(C)C)c2c(N)n(Cc3ccccc3)c(=O)[nH]c2=O)CC1 (centres unmarked) is higher in “hERG current change (%, negative = inhibition) at 1uM” value: 7.89% for the first, 14% for the second.

Compared with O=C(N/N=C\c1ccc(COc2ccc([N+](=O)[O-])cc2)o1)c1cccc(Cl)c1, COc1ccc(NC(=O)c2ccc([N+](=O)[O-])o2)cc1 is higher in “hERG current change (%, negative = inhibition) at 1uM” value: 7.21% for the first, 14.5% for the second.

First: O=C1c2ccccc2C(Nc2cccnc2)N1Cc1ccc2c(c1)OCO2 (centres unmarked)
Second: Cc1nnc(SCC(=O)Nc2ccc3c(c2)OCO3)o1
The “hERG current change (%, negative = inhibition) at 1uM” value of the first is lower: 8.45% for the first, 14.8% for the second.

Compared with CCc1nnc(NC(=O)C2Cc3ccccc3CN2S(=O)(=O)CC)s1 (centres unmarked), Cc1cc([N+](=O)[O-])nn1CC(=O)Nc1nc2ccccc2s1 is lower in “hERG current change (%, negative = inhibition) at 1uM” value: 9.74% for the first, -13.7% for the second.

Going from O=C(Nc1cc(=O)[nH]c2ncnn12)c1ccccc1F to COC(=O)CSc1nc(C)c(Oc2ccccc2)c(=O)[nH]1, the “hERG current change (%, negative = inhibition) at 1uM” value falls from 13% to 10.1%.

Going from Cc1oc(-c2cccc(Cl)c2)nc1CS(=O)(=O)CC(=O)NCc1ccco1 to COc1ccc(NC(=O)CN(c2ccccc2)S(=O)(=O)N(C)C)cc1Cl, the “hERG current change (%, negative = inhibition) at 1uM” value rises from -3.83% to 8.48%.

Going from C(=N\N1CCN(Cc2ccccc2)CC1)/c1cccnc1 to CN1CCN(Cc2nc3ccccc3c(=O)n2CC#N)CC1, the “hERG current change (%, negative = inhibition) at 1uM” value rises from 5.72% to 6.37%.

First: Cc1ccc(Cl)cc1NC(=O)CSC(N)=O
Second: CCOC(=O)c1c(C)c(C(=O)Nc2ccc(F)cc2)c(C)n1C
The “hERG current change (%, negative = inhibition) at 1uM” value of the first is lower: 5.48% for the first, 12.2% for the second.

First: Cc1[nH]nc(SCC(=O)NCc2ccccc2)c1[N+](=O)[O-]
Second: O=c1oc(-c2ccccc2[N+](=O)[O-])nc2ccccc12
The “hERG current change (%, negative = inhibition) at 1uM” value of the first is higher: 2.83% for the first, -6.36% for the second.

First: COc1ccc(NC(=O)c2cccnc2Cl)c(S(=O)(=O)N2CCOCC2)c1
Second: COc1ccc(N2CCN(C(=O)Cc3ccc(Br)cc3)CC2)cc1
The “hERG current change (%, negative = inhibition) at 1uM” value of the first is lower: 2.79% for the first, 4.41% for the second.

First: O=C(c1n[nH]c(=O)c2ccccc12)N1CCN(c2ccccc2Cl)CC1
Second: O=C(CN1CCOCC1)n1c2ccccc2c2ccccc21
The “hERG current change (%, negative = inhibition) at 1uM” value of the first is higher: 0.0913% for the first, -1.47% for the second.

Going from COc1ccc(CC(NC(C)=O)C(=O)NC2CCN(c3c4c(nc5ncnn35)CCC4)CC2)cc1OC (centres unmarked) to COc1ccc(N(CC(=O)NCC2CCCO2)S(=O)(=O)c2ccc(C)cc2)cc1OC (centres unmarked), the “hERG current change (%, negative = inhibition) at 1uM” value falls from 4.65% to -12.2%.

Compared with C[C@H]1CCC[C@]2(O[C@H](CCO)C[C@@H](O)[C@@H]2O)O1, COc1ccc(NC(=O)CC2(Cc3ccccc3)CCOC(C)(C)C2)cc1 (centres unmarked) is higher in “hERG current change (%, negative = inhibition) at 1uM” value: 7.8% for the first, 7.82% for the second.

Going from Cc1ccc(NC(=O)CCn2c(=O)c3cccn3c3ccccc32)c(C)c1 to Cc1ccc(-n2c(Cc3cccn3C)nnc2SCC(=O)N2CCc3ccccc32)cc1, the “hERG current change (%, negative = inhibition) at 1uM” value falls from 5.59% to -1.98%.

Going from Cc1cc(C)cc(C(=O)NCCC(=O)NCc2cc(=O)n(C)c(=O)n2C)c1 to COc1cccc(CN(C)C(=O)CSCC(=O)Nc2cccc(C)c2)c1OC, the “hERG current change (%, negative = inhibition) at 1uM” value falls from 12% to 5.68%.

Compared with CCOC(=O)/C(CCC[N+](C)(CC)CC)=N\O.[I-], CCOC(=O)C(CCCOc1ccccc1)C(=O)OCC is lower in “hERG current change (%, negative = inhibition) at 1uM” value: 16.7% for the first, 2.16% for the second.

Going from N=c1c(S(=O)(=O)c2ccc(Br)cc2)cc2c(=O)n3ccccc3nc2n1C1CCCCC1 to Cc1c(NS(=O)(=O)c2ccc(N=NN(C)C)cc2)c(=O)n(-c2ccccc2)n1C, the “hERG current change (%, negative = inhibition) at 1uM” value falls from 21.1% to 2.42%.

Going from COc1ccc(C(=O)N/N=C\C(C)=C\c2ccccc2)cc1OC to COc1ccc(Cl)cc1NC(=S)N(Cc1ccc(C(=O)O)cc1)Cc1ccc(OC)c(OC)c1, the “hERG current change (%, negative = inhibition) at 1uM” value rises from 6.2% to 9.09%.

Compared with CC(C)Cn1c(N)c(C(=O)COC(=O)c2cc(-c3ccccc3)nc3ccccc23)c(=O)n(C)c1=O, CCOC(=O)c1cc(-c2ccccc2)sc1NC(=O)C(C)Sc1nnnn1C (centres unmarked) is higher in “hERG current change (%, negative = inhibition) at 1uM” value: 2.4% for the first, 9.21% for the second.

Compared with Cc1ccccc1-n1c(SCc2c(C)noc2C)nnc1-c1cccnc1, CCOc1ccccc1NC(=O)CCSc1nc2n[nH]c(C)c2c(=N)n1-c1ccccc1Cl is lower in “hERG current change (%, negative = inhibition) at 1uM” value: 14.8% for the first, -2.02% for the second.

Going from O=C(c1ccco1)N1CCC(c2nc3c(nnn3Cc3c(Cl)cccc3Cl)c(=O)[nH]2)CC1 to C/C(=N\N1CCCCCC1)c1c(O)n(-c2ccccc2)c(=O)[nH]c1=O, the “hERG current change (%, negative = inhibition) at 1uM” value falls from 6.48% to 4.46%.

Going from Nc1nn(-c2ccccc2)c2ccc([N+](=O)[O-])cc12 to CCOC(=O)CSc1nnc(-c2ccc([N+](=O)[O-])cc2)o1, the “hERG current change (%, negative = inhibition) at 1uM” value rises from -9.55% to 8.46%.

Going from CCOc1ccc(/C=C/C2=NNC(=O)CC2)cc1 to CCCc1cc(=O)n2[nH]cc(-c3ccc(Cl)cc3)c2n1, the “hERG current change (%, negative = inhibition) at 1uM” value rises from 7.73% to 13.2%.

Going from CCNc1nc(N2CCCC2)nc(N2CCCC2)n1 to CCN(CC)c1cccc(OCC(=O)N(C)CCC#N)c1, the “hERG current change (%, negative = inhibition) at 1uM” value rises from 0.687% to 18.6%.

Compared with C=CCOc1c(Br)cc(CNc2ccc(NC(=O)C(C)C)c(OC)c2)cc1OC, CN(/N=C/c1ccc(O)cc1O)c1ncc(C(F)(F)F)cc1Cl is higher in “hERG current change (%, negative = inhibition) at 1uM” value: -6.12% for the first, 13.6% for the second.

For Cc1ccc(-c2c(C#N)c(N)n(-c3ccc(C)cc3)c(=O)c2C#N)cc1, the “hERG current change (%, negative = inhibition) at 1uM” value was 9.99%.
